Experimental data taken from publication PMC9911399, “Two distinct binding modes provide the RNA-binding protein RbFox with extraordinary sequence specificity”.
Changes are numbered by the printed parent chain; changes in the protein carry UniProt numbers. The list shows a part of the results.

B1: CGGUACC (DNA:RNA)
RNA: GGGAGACCGGAAUUCAGAUUGUCCCGGUACCUUAAAUCCCGUCGUAGCCACCA
DNA 1: CAATCTGAATTCCGGTCTCCC
DNA 2: TGGTGGCTACGACGGGATT
B2: UUCCGUA (DNA:RNA)
RNA: GGGAGACCGGAAUUCAGAUUGUCCUUCCGUAUUAAAUCCCGUCGUAGCCACCA
DNA 1: CAATCTGAATTCCGGTCTCCC
DNA 2: TGGTGGCTACGACGGGATT
B3: ACUCCAG (DNA:RNA)
RNA: B2 RNA with U25A, U26C, C27U, G29C, U30A, A31G
DNA 1: CAATCTGAATTCCGGTCTCCC
DNA 2: TGGTGGCTACGACGGGATT
B4: CCUUAAU (DNA:RNA)
RNA: B1 RNA with G26C, G27U, C30A, C31U
DNA 1: CAATCTGAATTCCGGTCTCCC
DNA 2: TGGTGGCTACGACGGGATT
B5: AUGAUGA (DNA:RNA)
RNA: B2 RNA with U25A, C27G, C28A, G29U, U30G
DNA 1: CAATCTGAATTCCGGTCTCCC
DNA 2: TGGTGGCTACGACGGGATT
B6: AACUGGU (DNA:RNA)
RNA: B2 RNA with U25A, U26A, C28U, U30G, A31U
DNA 1: CAATCTGAATTCCGGTCTCCC
DNA 2: TGGTGGCTACGACGGGATT
B7: UCCAUAG (DNA:RNA)
RNA: B2 RNA with U26C, C28A, G29U, U30A, A31G
DNA 1: CAATCTGAATTCCGGTCTCCC
DNA 2: TGGTGGCTACGACGGGATT
B8: CACCUCA (DNA:RNA)
RNA: B2 RNA with U25C, U26A, G29U, U30C
DNA 1: CAATCTGAATTCCGGTCTCCC
DNA 2: TGGTGGCTACGACGGGATT
B9: UAGAGGA (DNA:RNA)
RNA: B2 RNA with U26A, C27G, C28A, U30G
DNA 1: CAATCTGAATTCCGGTCTCCC
DNA 2: TGGTGGCTACGACGGGATT
B10: ACAUAUU (DNA:RNA)
RNA: B1 RNA with C25A, G26C, G27A, C30U, C31U
DNA 1: CAATCTGAATTCCGGTCTCCC
DNA 2: TGGTGGCTACGACGGGATT
B11: CGGUCAA (DNA:RNA)
RNA: B1 RNA with A29C, C30A, C31A
DNA 1: CAATCTGAATTCCGGTCTCCC
DNA 2: TGGTGGCTACGACGGGATT
B12: CUCUGGA (DNA:RNA)
RNA: B2 RNA with U25C, C28U, U30G
DNA 1: CAATCTGAATTCCGGTCTCCC
DNA 2: TGGTGGCTACGACGGGATT
B13: GCCACCU (DNA:RNA)
RNA: B1 RNA with C25G, G26C, G27C, U28A, A29C, C31U
DNA 1: CAATCTGAATTCCGGTCTCCC
DNA 2: TGGTGGCTACGACGGGATT
B14: CGUUAGA (DNA:RNA)
RNA: B1 RNA with G27U, C30G, C31A
DNA 1: CAATCTGAATTCCGGTCTCCC
DNA 2: TGGTGGCTACGACGGGATT
B15: UCGUAAC (DNA:RNA)
RNA: B1 RNA with C25U, G26C, C30A
DNA 1: CAATCTGAATTCCGGTCTCCC
DNA 2: TGGTGGCTACGACGGGATT
B16: UUGGUGU (DNA:RNA)
RNA: B2 RNA with C27G, C28G, G29U, U30G, A31U
DNA 1: CAATCTGAATTCCGGTCTCCC
DNA 2: TGGTGGCTACGACGGGATT
B17: GCUGAAU (DNA:RNA)
RNA: B1 RNA with C25G, G26C, G27U, U28G, C30A, C31U
DNA 1: CAATCTGAATTCCGGTCTCCC
DNA 2: TGGTGGCTACGACGGGATT
B18: GCAUGGC (DNA:RNA)
RNA: B1 RNA with C25G, G26C, G27A, A29G, C30G
DNA 1: CAATCTGAATTCCGGTCTCCC
DNA 2: TGGTGGCTACGACGGGATT
B19: UCUAUGA (DNA:RNA)
RNA: B2 RNA with U26C, C27U, C28A, G29U, U30G
DNA 1: CAATCTGAATTCCGGTCTCCC
DNA 2: TGGTGGCTACGACGGGATT
B20: CAGCAGG (DNA:RNA)
RNA: B1 RNA with G26A, U28C, C30G, C31G
DNA 1: CAATCTGAATTCCGGTCTCCC
DNA 2: TGGTGGCTACGACGGGATT
B21: AACCCUG (DNA:RNA)
RNA: B2 RNA with U25A, U26A, G29C, A31G
DNA 1: CAATCTGAATTCCGGTCTCCC
DNA 2: TGGTGGCTACGACGGGATT
B22: GUAGUUG (DNA:RNA)
RNA: B2 RNA with U25G, C27A, C28G, G29U, A31G
DNA 1: CAATCTGAATTCCGGTCTCCC
DNA 2: TGGTGGCTACGACGGGATT
B23: UAGGGAG (DNA:RNA)
RNA: B2 RNA with U26A, C27G, C28G, U30A, A31G
DNA 1: CAATCTGAATTCCGGTCTCCC
DNA 2: TGGTGGCTACGACGGGATT
B24: CAAGCUA (DNA:RNA)
RNA: B2 RNA with U25C, U26A, C27A, C28G, G29C
DNA 1: CAATCTGAATTCCGGTCTCCC
DNA 2: TGGTGGCTACGACGGGATT
B25: GGCUGUU (DNA:RNA)
RNA: B2 RNA with U25G, U26G, C28U, A31U
DNA 1: CAATCTGAATTCCGGTCTCCC
DNA 2: TGGTGGCTACGACGGGATT
B26: UGCCUGU (DNA:RNA)
RNA: B2 RNA with U26G, G29U, U30G, A31U
DNA 1: CAATCTGAATTCCGGTCTCCC
DNA 2: TGGTGGCTACGACGGGATT
B27: UCUGACG (DNA:RNA)
RNA: B1 RNA with C25U, G26C, G27U, U28G, C31G
DNA 1: CAATCTGAATTCCGGTCTCCC
DNA 2: TGGTGGCTACGACGGGATT
B28: CAUGGAG (DNA:RNA)
RNA: B1 RNA with G26A, G27U, U28G, A29G, C30A, C31G
DNA 1: CAATCTGAATTCCGGTCTCCC
DNA 2: TGGTGGCTACGACGGGATT
B29: CUCUAUU (DNA:RNA)
RNA: B1 RNA with G26U, G27C, C30U, C31U
DNA 1: CAATCTGAATTCCGGTCTCCC
DNA 2: TGGTGGCTACGACGGGATT
B30: AAAUGGG (DNA:RNA)
RNA: B1 RNA with C25A, G26A, G27A, A29G, C30G, C31G
DNA 1: CAATCTGAATTCCGGTCTCCC
DNA 2: TGGTGGCTACGACGGGATT
B31: CCCUUGA (DNA:RNA)
RNA: B1 RNA with G26C, G27C, A29U, C30G, C31A
DNA 1: CAATCTGAATTCCGGTCTCCC
DNA 2: TGGTGGCTACGACGGGATT

Each binder was assayed against T1, RBFOX1 RRM (Homo sapiens, UniProt Q9NWB1 109-208) (assay: EMSA; HiTS-Eq, 1 nM pool, 10 min; buffer printed only for the single-RNA assays: 10 mM Tris pH 7.5, 150 mM NaCl, 3.4 mM EDTA, 0.001% NP-40, 30 C). Settings: tags: His6 N-terminal (pET28a); label: 5' 32P.
T1 sequence: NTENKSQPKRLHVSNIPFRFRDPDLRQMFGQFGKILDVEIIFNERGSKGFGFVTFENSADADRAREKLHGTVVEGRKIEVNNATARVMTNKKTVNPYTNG
In short: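 Purified RbFox RRM (wild type or mutant) was equilibrated for 10 min in 50 µL with 1 nM of a 5′-radiolabelled pool of RNA with 7 randomized nucleotides, its flanks annealed to DNA oligonucleotides, across increasing protein concentrations. Free RNA was separated by 8% native PAGE, excised, reverse-transcribed, PCR-barcoded and sequenced on an Illumina HiSeq 2500. Relative association constants came from read-count changes of each variant against the control reaction, normalised to the cognate motif.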
For B1, the binding signal was 0.00911 KA relative to UGCAUGU.
With B2 the binding signal was 0.00467 KA relative to UGCAUGU.
For B3, the binding signal was 0.00187 KA relative to UGCAUGU.
For B4, the binding signal was 0.00134 KA relative to UGCAUGU.
In the case of B5, the binding signal is reported as 0.0162 KA relative to UGCAUGU.
With B6 the binding signal was 0.00971 KA relative to UGCAUGU.
B7 was tested, and the binding signal was 0.0074 KA relative to UGCAUGU.
For B8, the binding signal was 0.00147 KA relative to UGCAUGU.
For B9, the binding signal was 0.00353 KA relative to UGCAUGU.
In the case of B10, the binding signal is reported as 0.000313 KA relative to UGCAUGU.
B11 was tested, and the binding signal was 0.00469 KA relative to UGCAUGU.
B12 was tested, and the binding signal was 0.00614 KA relative to UGCAUGU.
In the case of B13, the binding signal is reported as 0.00566 KA relative to UGCAUGU.
In the case of B14, the binding signal is reported as 0.00888 KA relative to UGCAUGU.
For B15, the binding signal was 0.0085 KA relative to UGCAUGU.
For B16, the binding signal was 0.0306 KA relative to UGCAUGU.
For B17, the binding signal was 0.024 KA relative to UGCAUGU.
With B18 the binding signal was 0.43 KA relative to UGCAUGU.
With B19 the binding signal was 0.0107 KA relative to UGCAUGU.
B20 was tested, and the binding signal was 0.00872 KA relative to UGCAUGU.
With B21 the binding signal was 0.00331 KA relative to UGCAUGU.
In the case of B22, the binding signal is reported as 0.0172 KA relative to UGCAUGU.
For B23, the binding signal was 0.00912 KA relative to UGCAUGU.
For B24, the binding signal was 0.00318 KA relative to UGCAUGU.
For B25, the binding signal was 0.0191 KA relative to UGCAUGU.
For B26, the binding signal was 0.0501 KA relative to UGCAUGU.
For B27, the binding signal was 0.0161 KA relative to UGCAUGU.
In the case of B28, the binding signal is reported as 0.0079 KA relative to UGCAUGU.
With B29 the binding signal was 0.0071 KA relative to UGCAUGU.
With B30 the binding signal was 0.00315 KA relative to UGCAUGU.
In the case of B31, the binding signal is reported as 0.018 KA relative to UGCAUGU.
